Molecules are shown by their SMILES. The campaign covered roughly 110,000 compounds. About 230 (0.21%) showed an effect of 50% or more. The list shows a part of the results.
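Further: 30 min substrate incubation versus DMSO and 10 µM JCP410 controls.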

The target of the test is DPAP1 (Plasmodium falciparum, UniProt Q8IIJ9). As to the kind of experiment: primary screen, percent inhibition; read by cleavage of a fluorogenic dipeptide substrate; higher = more effect of the substance. On the set-up: species or system P. falciparum D10 trophozoite lysates; single well.
Chain of DPAP1 (Q8IIJ9 whole entry, looked up): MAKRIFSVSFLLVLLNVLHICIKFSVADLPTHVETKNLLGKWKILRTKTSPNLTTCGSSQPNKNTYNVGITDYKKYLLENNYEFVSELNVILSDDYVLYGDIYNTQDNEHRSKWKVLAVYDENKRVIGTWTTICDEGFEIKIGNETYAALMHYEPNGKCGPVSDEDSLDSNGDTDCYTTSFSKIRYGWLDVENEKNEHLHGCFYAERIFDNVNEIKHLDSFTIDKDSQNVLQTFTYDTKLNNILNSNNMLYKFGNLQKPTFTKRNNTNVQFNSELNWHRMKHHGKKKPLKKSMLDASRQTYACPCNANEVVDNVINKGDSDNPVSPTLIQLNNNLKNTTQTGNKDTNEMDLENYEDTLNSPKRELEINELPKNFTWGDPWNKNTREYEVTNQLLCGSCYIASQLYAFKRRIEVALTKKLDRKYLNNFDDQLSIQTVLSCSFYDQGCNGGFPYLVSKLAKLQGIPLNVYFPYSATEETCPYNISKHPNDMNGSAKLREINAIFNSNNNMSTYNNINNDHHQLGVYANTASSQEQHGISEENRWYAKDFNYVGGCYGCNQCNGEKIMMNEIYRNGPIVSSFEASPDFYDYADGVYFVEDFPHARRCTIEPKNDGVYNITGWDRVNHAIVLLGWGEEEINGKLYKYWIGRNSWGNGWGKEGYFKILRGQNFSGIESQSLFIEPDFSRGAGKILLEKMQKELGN
As to `CC1(C)CC(=O)C2=C(C1)N(c1ccccc1)C(N)=C(C#N)C2c1ccc2c(c1)OCO2` (stereo not drawn), the “% Inhibition @ 10 uM” value was -5.07%. On to `CCN(CC)CCNC(=O)c1sc2ncn(CC(=O)N3CCCCC3)c(=O)c2c1C`, for which the “% Inhibition @ 10 uM” value is -2.38%. Turning to `N#Cc1c(/N=C/c2ccc(O)cc2O)sc2c1C1CCN2CC1`, the “% Inhibition @ 10 uM” value is recorded as -3.86%.

On to `O=c1[nH]c2ncccc2c(=O)n1Cc1ccc2c(c1)OCO2`, for which the “% Inhibition @ 10 uM” value is on record as -7.18%. Take `O=C(O)c1cc(-c2cccs2)nc2ccc(Br)cc12`: the “% Inhibition @ 10 uM” value was 0.634%. For the compound `COc1ccc(NC(=O)c2nc3ccccc3s2)cc1`, the “% Inhibition @ 10 uM” value was found to be 3.58%. In the case of `CC(=O)c1ccc(NC(=O)CC(c2ccccc2)c2ccccc2)cc1`, the “% Inhibition @ 10 uM” value was -4.82%. Consider `COc1cccc(C2C3=C(O)CC(C)(C)CC3=NC(C)=C2C(=O)Nc2cc(C)ccn2)c1` (stereo not drawn), for which the “% Inhibition @ 10 uM” value is -1.1%.

As for `CC(C)C1=NN2C(=N)/C(=C\c3coc4ccccc4c3=O)C(=O)N=C2S1`, the “% Inhibition @ 10 uM” value is on record as 11.3%. The same measure for `Cc1ccc(NC(=O)COc2ccc([N+](=O)[O-])cc2)c(C)c1`: 6.94%; for `O=C(O)CCC(=O)Nc1ccc(N2CCN(c3ccc(Cl)c(Cl)c3)CC2)cc1`: -7.47%.

On to `CN(C)c1nc(Oc2ccc(OCc3ccccc3)nn2)nc(N(C)C)n1`, for which the “% Inhibition @ 10 uM” value was -6.95%.

Consider `O=C(CN1C(=O)c2cccc3cccc(c23)C1=O)NCc1ccc2c(c1)OCO2`, for which the “% Inhibition @ 10 uM” value is -6.86%. Take `CC(C)C[C@H](NC(=O)N1CCOCC1)C(=O)NCC#N`: the “% Inhibition @ 10 uM” value is -8.82%. Take `CC(C)c1ccc(NC(=O)c2ccccc2N)cc1`: the “% Inhibition @ 10 uM” value was -3.1%.

Consider `C=CCO/C(O)=C1/C(C)=Nc2nc3ccccc3n2C1c1ccc(F)cc1` (stereo not drawn), for which the “% Inhibition @ 10 uM” value is 1.53%. `Cc1noc(/C=C/c2cccs2)c1S(=O)(=O)N1CCCC(C(=O)NCCC(C)C)C1` (stereo not drawn): the “% Inhibition @ 10 uM” value stood at 3.32%.

As to `CCOC(=O)N1CCN(Cc2ccc(SC)cc2)CC1`, the “% Inhibition @ 10 uM” value is recorded as 3.24%. For the compound `Cc1ccccc1Cn1c2ccccc2c2cnn(CC(=O)NC3CCCC3)c(=O)c21`, the “% Inhibition @ 10 uM” value is reported as 3.4%. Turning to `CCOc1ccc(-n2c(C)c(C(=O)OC)c3cc(OC)ccc32)cc1`, the “% Inhibition @ 10 uM” value is on record as 2.16%. On to `Cn1cc(C(=O)N2CCOCC2)c2c3ccccc3n(C)c2c1=O`, for which the “% Inhibition @ 10 uM” value was determined as 0.0654%.

Take `Cc1cc(C)c(S(=O)(=O)c2nnn3c2nc(NCC2CCCO2)c2ccccc23)c(C)c1` (stereo not drawn): the “% Inhibition @ 10 uM” value is -4.85%. As to `Cc1nc2c3ccccc3n3c(CCCC(=O)NCC(C)c4ccccc4)nnc3n2n1` (stereo not drawn), the “% Inhibition @ 10 uM” value is recorded as -2.92%. For the compound `COc1ccc(NC(=O)/C(=C\c2ccco2)NC(=O)c2ccccc2)cc1`, the “% Inhibition @ 10 uM” value turned out to be 2.45%. The figure for `O=C(C1=C(O)C(=O)N(Cc2ccco2)C1c1cccnc1)c1ccc(Br)cc1` (stereo not drawn) is -1.22%; for `COc1ccc(N2CCN(Cc3ccc(C)o3)CC2)cc1` it is -2.21%; for `Cc1ccccc1CSCC(=O)NCCSC1CCCCC1` it is 4.28%. As for `Cc1ccc(C=C2C(=O)N(C)C(=O)N(C)C2=O)s1`, the “% Inhibition @ 10 uM” value worked out at 4.95%. `CCCN1CCC(N2CCC(C(N)=O)CC2)CC1`: the “% Inhibition @ 10 uM” value was determined as 6.18%. Take `Cc1cc2c(c(=O)o1)C(c1ccco1)C(C#N)=C(N)O2` (stereo not drawn): the “% Inhibition @ 10 uM” value was -1.98%. For `CCc1nnc(NC(=O)CSc2nc(-c3ccc(C)cc3)ns2)s1`, the “% Inhibition @ 10 uM” value is given as -0.398%. As for `CC(C)(C)NC(=O)C1COc2ccccc2O1` (stereo not drawn), the “% Inhibition @ 10 uM” value is given as -1.95%. Regarding `Cc1cccc(N2CCN(C(=O)N3CCOCC3)CC2)c1C`, the “% Inhibition @ 10 uM” value is recorded as -0.173%. Consider `O=C1NC(=O)/C(=C\c2ccc(-c3ccc(Cl)c(C(=O)O)c3)o2)S1`, for which the “% Inhibition @ 10 uM” value is listed as 8.24%. In the case of `Cn1cc(NC(=O)Nc2ccc(Cl)cn2)c2ccccc2c1=O`, the “% Inhibition @ 10 uM” value was determined as 8.33%. Regarding `Cc1ccc(NC(=O)c2ccc(Br)cc2)cc1C`, the “% Inhibition @ 10 uM” value was 2.22%.

With `CC(C)NC(=O)c1sc2nc(-c3ccc(F)cc3)ccc2c1N`, the “% Inhibition @ 10 uM” value is recorded as 3.5%.

For the compound `Cc1cc(C)c2c(N)c(C(=O)Nc3cccc(C(F)(F)F)c3)sc2n1`, the “% Inhibition @ 10 uM” value was -1.28%. As for `CCOC(=O)C1=C(C)OC(N)=C(C#N)C1c1ccc(-c2ccccc2)cc1` (stereo not drawn), the “% Inhibition @ 10 uM” value is recorded as -4.94%. Consider `COc1ccc(-c2cnc3c(=O)[nH]c(=O)[nH]c3n2)cc1`, for which the “% Inhibition @ 10 uM” value is -5.35%.

Regarding `CCOc1ccc(Cc2nc(-c3ccc(C(F)(F)F)cc3)no2)cc1OCC`, the “% Inhibition @ 10 uM” value worked out at 1.84%. As for `COc1ccc(CCNC(=O)c2sc3nc(C)cc(C)c3c2-n2cccc2)cc1OC`, the “% Inhibition @ 10 uM” value was found to be 2.27%. Consider `O=C(Nc1ccc(F)cc1)c1cccc([N+](=O)[O-])c1`, for which the “% Inhibition @ 10 uM” value is listed as -1.93%.

For the compound `C/N=C1/S/C(=C/c2ccc(-c3ccc(F)cc3F)o2)C(=O)N1C`, the “% Inhibition @ 10 uM” value was -5.82%.

For the compound `c1cncc(-c2nc3c4ccccc4nc(NCCCN(Cc4ccco4)C4CCCC4)n3n2)c1`, the “% Inhibition @ 10 uM” value was -0.692%. As to `Cc1ccc(CN(CC(=O)N2CCN(c3ccc(F)cc3)CC2)S(=O)(=O)c2ccccc2)cc1`, the “% Inhibition @ 10 uM” value is reported as -5.46%. On to `CCc1nnc(NC(=O)c2cc(Cl)c(OC)c(Cl)c2)s1`, for which the “% Inhibition @ 10 uM” value was found to be 7.73%. With `CC(C)(C)c1ccc(C(=O)N2CCN(C34CC5CC(CC(C5)C3)C4)CC2)cc1`, the “% Inhibition @ 10 uM” value is 0.9%.

On to `CCOC(=O)C1CCCN(Cc2ccc(C)cc2C)C1` (stereo not drawn), for which the “% Inhibition @ 10 uM” value was -0.197%. Consider `CCN(CC)S(=O)(=O)c1ccc(NC(=O)COc2ccc(Cl)cc2Br)cc1`, for which the “% Inhibition @ 10 uM” value is -3.34%. The same measure for `COc1ccc(CCn2c(C)c(C(C)=O)c(C(C)=O)c2C)cc1OC`: -2.75%; for `COc1cc2c(cc1OC)C(c1cccc(OC)c1O)N(C(C)=O)CC2` (stereo not drawn): 1.08%. Regarding `CCCCN1C(=O)CN(C2CCCCCC2)C(=O)C1c1ccccc1F` (stereo not drawn), the “% Inhibition @ 10 uM” value is -2.26%. For the compound `COc1ccc(C2OC(COc3ccccc3)CN(C(=O)c3ccccc3)O2)cc1OC` (stereo not drawn), the “% Inhibition @ 10 uM” value was determined as 22.4%. As for `CCCN(CCO)Cc1ccccc1`, the “% Inhibition @ 10 uM” value was 1.08%. With `COc1ccc2cc(Br)ccc2c1CC(=O)NCC1CCCO1` (stereo not drawn), the “% Inhibition @ 10 uM” value is -0.25%. Regarding `CCOc1cc(C(=O)Nc2nnc(S(=O)(=O)N3CCOCC3)s2)cc(OCC)c1OCC`, the “% Inhibition @ 10 uM” value is -1.72%. `Cc1ccc(S(=O)(=O)Nc2nc3ccccc3nc2Nc2ccc(S(N)(=O)=O)cc2)cc1`: the “% Inhibition @ 10 uM” value is -0.425%.

`Cc1cc(O)n(-c2nc(-c3ccccc3)cs2)n1`: the “% Inhibition @ 10 uM” value is recorded as -1.05%.

`c1ccc(-c2cc3c(N4CCCCCC4)ncnc3s2)cc1`: the “% Inhibition @ 10 uM” value is listed as -5.28%. As to `COc1ccc(-c2nc(CSCC(=O)NCCCOC(C)C)c(C)o2)cc1`, the “% Inhibition @ 10 uM” value was -1.05%. Turning to `CCN(CC)c1ncnc2sc(C(=O)NCCc3ccc(OC)c(OC)c3)c(C)c12`, the “% Inhibition @ 10 uM” value was 1.2%. As to `Cc1cc(NC(=O)c2cc3nc(-c4cccs4)cc(C(F)(F)Cl)n3n2)no1`, the “% Inhibition @ 10 uM” value was determined as 2.02%.

(Values after paper PMC6919601, “Identification of Plasmodium dipeptidyl aminopeptidase allosteric inhibitors by high throughput screening” (PLoS ONE, 2019).)
